Screen size: about 410,000 compounds; about 7,200 (1.8%) were called active. This list was built around the results that the source calls inconclusive (neither active nor inactive); the mix of calls is not that of the screen. Calls come from the whole dose curve; as a rule, active = well fitted activation curve with a large enough effect; inconclusive = small, poorly fitted or top-dose-only effect, or another doubt; inactive = no such curve, though single readings can be large or run the other way. A potency beside an inconclusive call is a rough fit, not a confirmed value.
assay: qHTS of TDP-43 Inhibitors; settings: TDP-43 expressing yeast growth rescue, BacTiter-Glo, 24 h; growth rescue (activation): at 46.1 µM (top of the series) unless noted; note: nearly all actives have a fitted effect of over 50% in size; for growth rescue (activation): % of control where 0% means no effect
In short: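 In this qHTS, compounds that restore growth of yeast expressing TDP-43 appear as activators. Cells (OD600=0.02, galactose medium, raffinose-pregrown) are incubated with compound 24 hr at 30 deg C and growth is quantified by BacTiter-Glo.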
Potency is the fitted concentration of half-maximal effect; tags give direction and shape of the fitted curve.

Potency, inconclusive:
O=C(Nc1ccccc1N1CCCC1)c1ccc2c(c1)OCO2 31.6 µM [activator, single point], CC(C)(C)NCC(O)c1cc(O)cc(O)c1 (stereo not drawn) 0.316 µM [activator, full curve, poor fit], O=C(O)Cc1ccc(-c2ccccc2-c2ccccc2)cc1 20 µM [activator, partial curve], N#CC(C(=O)NCc1ccco1)c1nc2ccccc2nc1N1CCOCC1 (stereo not drawn) 20 µM [activator, partial curve], O=C(c1ccc2c(c1)N(Cc1ccccc1Cl)C(=O)c1ccccc1S2)N1CCCC1 35.5 µM [activator, partial curve], O=C(NCc1cccnc1)Nc1ccccc1F 2.82 µM [activator, full curve, poor fit], COc1cccc(CNC(=S)NC2CC2)c1 5.62 µM [activator, single point], O=C1CC(c2ccco2)Cc2nc(Nc3ccc(F)cc3)ncc21 (stereo not drawn) 14.1 µM [activator, single point], CCCCCNC(=O)C(c1cccc2ccccc12)n1c(=O)c(-c2ccco2)nc2ccccc21 (stereo not drawn) 28.2 µM [activator, partial curve], O=C1CC(N2CCSCC2)C(=O)N1c1ccc(F)cc1 (stereo not drawn) 2.24 µM [activator, partial curve], CCSc1ncc(Cl)c(C(=O)Nc2ccccc2F)n1 2.82 µM [activator, full curve], COc1ccccc1C(=O)Nc1ccc(OCC(=O)N2CC(C)CC(C)C2)cc1 (stereo not drawn) 17.8 µM [activator, single point], CC1(C)Cc2cccc(OCC(=O)Nc3ccccc3N3CCOCC3)c2O1 8.91 µM [activator, single point], O=C(ON=C1CCN(S(=O)(=O)c2ccccc2)CC1)c1ccc(Cl)cc1 31.6 µM [activator, single point], COc1ccc(CCNc2ncnc3c2c(-c2ccccc2)cn3-c2cccc(Cl)c2)cc1OC 28.2 µM [activator, single point], Cc1csc2nc(CSc3nc4ccccc4o3)c(Br)n12 10 µM [activator, partial curve], Cc1cc(Br)cn2c(Cc3cccc(Cl)c3)c(-c3ccco3)nc12 35.5 µM [activator, single point], COc1ccc(NC(=O)C[C@H]2C(=O)N(C3CCCCC3)C[C@@H]2c2ccc(OC)cc2)cc1 20 µM [activator, partial curve], Cc1nn(CC(=O)N2CCN(c3ccccc3)CC2)c(=O)c2cc3cc(F)ccc3n12 2.82 µM [activator, full curve, poor fit], CCCCNC(=O)COC(=O)c1cc(Br)ccc1Cl 28.2 µM [activator, partial curve], CC(C)(C)c1ccc(OCC(=O)NCc2ccco2)c(Br)c1 15.8 µM [activator, single point], CCOC(=O)N1CCN(C(=O)COc2ccc3oc4c(c3c2)CCCC4)CC1 35.5 µM [activator, single point], Cc1cccc(Nc2nnc(SCC(=O)c3c(N)n(C4CC4)c(=O)[nH]c3=O)s2)c1 8.91 µM [activator, partial curve], C=C(C)COc1ccc(-c2n[nH]c(C)c2Oc2ccccc2OC)c(O)c1 35.5 µM [activator, single point], COc1ccc(N2C(=O)CSC23C(=O)N(CC(=O)NCc2ccccc2)c2ccccc23)cc1 (stereo not drawn) 3.55 µM [activator, partial curve], COc1ccccc1NC(=O)CSc1nccn1Cc1ccc(F)cc1 2.82 µM [activator, partial curve], COc1cccc(NC(=O)C2CC(=O)N(C)C(=Nc3cccc(F)c3)S2)c1 (stereo not drawn) 25.1 µM [activator, single point], CSc1ccc(/C=N/Nc2cccc(C(=O)O)c2)cc1 35.5 µM [activator, single point], Cc1cccc2c1-c1sc(C(=O)N3CCN(c4ccc(F)cc4)CC3)cc1CO2 5.62 µM [activator, partial curve, poor fit], CCc1ccccc1NC(=O)c1ccoc1C 11.2 µM [activator, partial curve, poor fit], CCCCCc1c(-c2ccccc2F)ncn1CCc1ccccc1OC 3.16 µM [activator, full curve], CCOc1cc(C(=O)N=c2sccn2C)ccc1OC(F)F 14.1 µM [activator, partial curve], COc1cccc(Nc2nc(N)c([N+](=O)[O-])c(NCc3ccco3)n2)c1 14.1 µM [activator, single point], Cc1ccc(-n2ncc3c2CCCC3NC(=O)CSc2ccccn2)cc1C (stereo not drawn) 11.2 µM [activator, single point], COc1ccccc1-c1ccc([C@@H]2C[C@H]3[C@H](CON3C)CN2C(=O)c2ccc(-c3ccccc3)cc2)cc1 35.5 µM [activator, partial curve], COC(=O)C(N)Cc1ccc(Cl)cc1 (stereo not drawn) 3.16 µM [activator, partial curve, poor fit], CCC1CCCCN1S(=O)(=O)c1ccc2c(c1)CCCN2C(C)=O (stereo not drawn) 35.5 µM [activator, single point], CCn1cc(C(=O)OCC(=O)Nc2cccc(Cl)c2C)c(=O)c2ccc(C)nc21 3.55 µM [activator, partial curve, poor fit], Clc1ccc(-n2ncc3c(NCc4ccco4)ncnc32)cc1 3.98 µM [activator, partial curve], Cc1ccccc1N=C1NC(=O)CC(c2ccccc2)S1 (stereo not drawn) 20 µM [activator, partial curve], Cc1cccc2sc(NNC(=O)C3COc4ccccc4O3)nc12 (stereo not drawn) 11.2 µM [activator, partial curve, poor fit]

Potency, active:
Cc1cccc(C)c1OCC(=O)Nc1ccc2c(c1)OCCO2 14.1 µM, CCCCCOc1ccc(OC(=O)c2ccncc2)cc1 35.5 µM, COc1ccc2c(CC(=O)Nc3nc(C)cs3)coc2c1 12.6 µM, Cc1cc(Nc2ccccc2)n(-c2nc3ccccc3[nH]2)n1 15.8 µM, COc1cccc(C(=O)Oc2ccc3ccc(O)cc3c2)c1 20 µM, OC(c1ccc(F)c(F)c1)c1nc(-c2ccccc2)cs1 (stereo not drawn) 14.1 µM, O=[N+]([O-])c1cccc(-c2cc(-c3cc(Br)ccc3O)[nH]n2)c1 12.6 µM, Cc1cccc(OCCn2c(-c3ccco3)nc3ccccc32)c1 11.2 µM, Cc1ccc2onc(CC(=O)Nc3cc(F)ccc3F)c2c1 10 µM, CC1CCN(C(=O)c2ccc(S(=O)(=O)Cc3cc(F)ccc3F)c([N+](=O)[O-])c2)CC1 11.2 µM

Growth rescue (activation), inactive:
Cc1ccccc1CNC(=O)CN1CCSc2ccccc21 12.9%, CCc1cccc(NC(=O)Cn2c(-c3ccc(F)cc3)cc(C(C)=O)c2C)c1 10.5%, COc1ccc2[nH]c3c(=O)n(Cc4ccc(C(=O)NCC5CCCO5)cc4)c(=S)[nH]c3c2c1 (stereo not drawn) 1.37%, CNc1c(C(=O)O)ccc2c1C(=O)c1ccccc1C2=O -9.15%, Cc1ccc2nc(SCC(=O)Nc3cccnc3Cl)[nH]c2c1 -22.9%, O=c1oc2ccccc2cc1-c1nc(-c2cccc(Cl)c2)cs1 12.6%, CC[N+](CC)(CC)CCOc1cccc(OCC[N+](CC)(CC)CC)c1OCC[N+](CC)(CC)CC 0%, CSc1ccc(CCNC(=O)c2c(C)nn(-c3ccc(F)cc3)c2-n2cccc2)cc1 0%, Cc1ccc(CSc2nc3ccc(NC(=O)CC(C)C)cc3s2)cc1 12%, c1ccc(OCc2nnnn2-c2ccccc2)cc1 13.5%, COC(=O)c1cc(S(=O)(=O)N2CCN(Cc3ccccc3)CC2)c[nH]1 -9.07%, CCOc1ccc(NC(=O)Cn2c(=O)n(Cc3ccccc3)c(=O)c3sc4ccccc4c32)cc1 16.4%, COc1cc(C2C(C(=O)OC(C)C)=C(C)N=C3SCCC(=O)N32)ccc1OCc1ccccc1 (stereo not drawn) -0.157%, CCOC(=O)C1=CCN(S(=O)(=O)c2ccc(C)cc2)C1c1ccc(CC)cc1 (stereo not drawn) -3.64%, CCCCC[C@@H]1[C@H]2[C@H]3C(=O)N(c4ccccc4)C(=O)[C@H]3CC(=O)[C@H]2[C@H](c2ccccc2)N1S(=O)(=O)c1ccc(C)cc1 6.35%, Cc1ccn2c(=O)c(C(=O)NCCc3ccc(S(N)(=O)=O)cc3)c(O)nc2c1 -14%, COc1ccc(NC(=O)CC(C)c2ccccc2)c([N+](=O)[O-])c1 (stereo not drawn) -0.596%, CC(NS(=O)(=O)c1cccc(Cl)c1)C(=O)Nc1ccc(-c2nc3ccccc3s2)cc1 (stereo not drawn) 19.4%, CC(CNC(=O)c1ccc(CSc2nc3ccncc3n2Cc2cccc(F)c2)cc1)c1ccccc1 (stereo not drawn) 10.9%, COc1ccc(C(=O)Nc2ccc3c(c2)N(C2CCCC2)C(=O)c2ccccc2S3)cc1OC 6.87%, COC(=O)c1scc(-c2ccc(C)cc2)c1S(=O)(=O)Nc1ccc(OC(F)(F)F)cc1 -0.147%, COC(=O)c1sccc1NC(=O)c1ccncc1 8.99%
